The results in this text go back to ChEMBL document CHEMBL4513135, “CO-ADD screening of IQOG CSIS (Spain) compounds”.

The list shows a part of the results. Entries with a potency or affinity are not part of this list.

The subject of this assay is Pseudomonas aeruginosa. To be noted: Concentration 32 ug.mL-1; ASSAY_TEST Inhibition of Bacterial Growth; detection method Absorption (OD600); MEDIA CAMHB; plate type 384well; NBS; CORNING #3640; time 18 hr.
Usually Inhibition stands for the drop in the measured response relative to a control, in per cent. With `COc1ccc(C=C2N=C(c3ccccc3)OC2=O)cc1`, the Inhibition was determined as 9.34%.
`CSC1=NC2(CC2c2ccccc2)C(=O)N1` (stereo not drawn): the Inhibition was 46.96%.
Take `Cn1c(C(=O)O)cc2cc(OCCCC3CCN(Cc4ccccc4)CC3)ccc21`: the Inhibition was found to be 25.39%.
For `CCOC(=O)CCc1c[nH]c2ccccc12`, the Inhibition was determined as 1.46%.
On to `COc1cc(C2C(C#N)=C(N)Oc3ccc4ccccc4c32)ccc1O` (stereo not drawn), for which the Inhibition is recorded as 8.4%.
Turning to `COc1ccccc1C1c2ccc3ccccc3c2OC(=NBr)C1(Br)C#N` (stereo not drawn), the Inhibition came out at 5.32%.
As to `CCOC(=O)C1=C(C)NC(N)=C(C#N)C1c1ccc(OC)cc1` (stereo not drawn), the Inhibition amounted to 12.75%.
`COc1cccc(-c2c(C#N)c(=O)oc3c2ccc2ccccc23)c1`: the Inhibition is reported as -21%.
Consider `CCOC(=O)C1=C(C)Oc2nc3c(c(N)c2C1c1ccc(O)c(OC)c1)CCC3` (stereo not drawn), for which the Inhibition was 8.73%.
On to `COc1cccc(C=C2N=C(c3ccccc3)OC2=O)c1OC(C)=O`, for which the Inhibition stood at 22.12%.
As for `O=C(Cc1c[nH]c2ccccc12)N/N=C/c1ccco1`, the Inhibition is listed as 36.18%.
Next, `COc1ccccc1C1c2c(ccc3ccccc23)OC(=N)C1(Br)C#N` (stereo not drawn): 1.01%; `O=C1NC(=S)N/C1=C\c1ccccc1`: 38.25%; `COc1ccc(C2c3c(nc4c(c3N)CCCC4)Oc3ccc4ccccc4c32)c(OC)c1` (stereo not drawn): 20.09%.
With `N#Cc1cc(C#N)c(N2CCCC2)nc1N1CCCC1`, the Inhibition amounted to 50.45%.
Under `N#Cc1cc2c(N)c3c(nc2nc1Cl)CCCC3` stands 20.75%; under `N#Cc1cc(C#N)c(NCc2ccccc2)nc1N`, -21.9%; under `CC(=O)Oc1ccc(C=C2N=C(C)OC2=O)cc1`, 32.36%.
For `C#CCN(C)c1ncc(C#N)c(N)n1`, the Inhibition stood at 10.37%.
Under `COc1ccc2cc(C3C(C(C)=O)=C(C)Oc4nc5c(c(N)c43)CCC5)c(Cl)nc2c1` (stereo not drawn) stands 8.84%.
For `COc1ccc2c(c1)cc(C(=O)Nc1ccccc1)n2C`, the Inhibition was determined as 8.89%.
Take `CC(C)(C)OC(=O)N[C@H]1CC[C@H](O)CC1`: the Inhibition was 10.73%.
Under `c1ccc(CNc2ncnc3c2cnn3-c2ccccc2)cc1` stands 10.11%.
As to `COc1nc2nc3c(c(N)c2cc1C#N)CN(Cc1ccccc1)CC3`, the Inhibition stood at 16.42%.
Turning to `N#Cc1c(Cl)nc(N2CCCCC2)c(C#N)c1-c1ccccc1`, the Inhibition was -7.48%.
In the case of `O=Cc1ccc(OCCO[N+](=O)[O-])cc1`, the Inhibition came out at 11.65%.
With `Cl.OCCCC1CCNCC1`, the Inhibition is -20.82%.
For `N#Cc1c(N)nc(N)c(C#N)c1-c1ccccc1`, the Inhibition is recorded as -7.53%.
Consider `COc1ccc2c(c1)cc(C(=O)O)n2C`, for which the Inhibition came out at 23.36%.
On to `CC(C)(C)OC(=O)Nc1ccc(Cl)cn1`, for which the Inhibition amounted to 10.81%.
As for `CCCC(C)NNC(=O)Cc1c[nH]c2ccccc12` (stereo not drawn), the Inhibition is reported as 22.46%.
Consider `O=Cc1cc2ccccc2nc1Cl`, for which the Inhibition was 1.44%.
On to `NNC(=O)CCc1c[nH]c2ccccc12`, for which the Inhibition is 39.72%.
Take `C#CCN(C)Cc1cc2cc(OC)ccc2n1C`: the Inhibition is reported as 3.66%.
For `COc1ccccc1C1C(C#N)=C(N)Oc2ccc3ccccc3c21` (stereo not drawn), the Inhibition was 13.92%.
As for `O=C1C=C(Nc2ccccc2)C(=O)N1c1ccccc1`, the Inhibition amounted to 11.12%.
For `Cl.N#Cc1cc(C#N)c(N2CCCC2)nc1Cl`, the Inhibition is 9.12%.
`NC(=O)N/N=C/c1c[nH]c2ccccc12`: the Inhibition is listed as 34.82%.
Next, `CC1Cc2c(nc3c(c2N)CCCC3)NC1=O` (stereo not drawn): 44.96%; `C#CCNC.O=C(O)C(=O)O`: 3.05%.
As to `CNCc1cc2cc(OC)ccc2n1C.Cl`, the Inhibition came out at 38.07%.
Next, `N#Cc1c(N)nc(O)c(C#N)c1-c1ccccc1`: 14.77%.
On to `COc1ccc2cc(C3C4=C(CC(C)(C)CC4=O)Oc4nc5c(c(N)c43)CCCCC5)c(Cl)nc2c1` (stereo not drawn), for which the Inhibition is 5.01%.
Under `CC(=O)NCCc1ccccc1` stands 15.71%.
For `CCOC(=O)c1cc(C#N)c(N)nc1C`, the Inhibition is given as 7.6%.
For the compound `Nc1c2c(nc3nc4ccccc4nc13)CCCC2`, the Inhibition is recorded as -1.02%.
Regarding `C#CCN(C)Cc1cc2cc(OCCCC3CCN(Cc4ccc(C#N)cc4)CC3)ccc2n1C`, the Inhibition worked out at 10.58%.
Under `CC(=O)O[C@H]1CC[C@H](NC(=O)c2ccccc2)CC1` stands 30.15%; under `O=C(NNCc1c[nH]c2ccccc12)c1cccc2ccccc12`, 19.22%; under `CN1C/C(=C\Br)n2c1c(C#N)cc(C#N)c2=O`, 1.74%.
Consider `C#CCN1CCc2nc3nc(N4CCCC4)c(C#N)cc3c(N)c2C1`, for which the Inhibition was found to be 27.54%.
For `O=C(N/N=C/c1ccc([N+](=O)[O-])cc1)c1cc2ccccc2[nH]1`, the Inhibition is 30.81%.
Turning to `CCC(CC)NNC(=O)c1c[nH]c2ccccc12.Cl`, the Inhibition came out at 30.6%.
With `C#CCN(C)c1nc(OC)c(C#N)cc1C#N`, the Inhibition was 9.36%.
Next, `N#CC1=C(N)Oc2ccc3ccccc3c2C1c1cccc([N+](=O)[O-])c1` (stereo not drawn): 13.73%; `N#Cc1c(Cl)nc(Cl)c(C#N)c1-c1ccccc1`: 1.7%.
On to `Cc1nn(-c2ccccc2)c2ncn3nc(-c4ccccc4)nc3c12`, for which the Inhibition stood at 23.31%.
Under `N#CC1(Br)C(=NBr)Oc2c(ccc3ccccc23)C1c1ccccc1[N+](=O)[O-]` (stereo not drawn) stands 32.2%; under `CC1=NC(=Cc2ccccc2)C(=O)S1`, 24.56%.
Consider `Cl.ClCCCC1CCNCC1`, for which the Inhibition stood at 9.84%.
As for `Cc1ccc(C=C2N=C(c3ccccc3)OC2=O)cc1`, the Inhibition is recorded as 17.23%.
Under `COc1cccc(C2C(C#N)=C(N)Oc3c2ccc2ccccc32)c1` (stereo not drawn) stands 30.49%; under `CCC(Cc1ccccc1)NNC(=O)c1cc2ccccc2[nH]1` (stereo not drawn), 1.16%.
Next, `COc1cc(Br)c(C=O)cc1OC`: 17.32%; `COc1ccccc1C1C(C#N)=C(N)Oc2[nH]nc(C)c21` (stereo not drawn): -5.23%.
Under `N#Cc1c(N)nc(NCc2ccccc2)c(C#N)c1-c1ccccc1` stands 3.37%; under `CNC(=O)c1cc2cc(OCc3ccccc3)ccc2n1C`, 21.94%.
In the case of `COC(=O)C(NC(=O)c1ccccc1)=C(C)c1ccccc1`, the Inhibition turned out to be 45.08%.
Regarding `COc1ccc2cc(C3C(C(C)=O)=C(C)Oc4nc5c(c(N)c43)CCCCC5)c(Cl)nc2c1` (stereo not drawn), the Inhibition was 6.12%.
Turning to `CCOc1nc(N)c(C#N)cc1C#N`, the Inhibition amounted to 2.22%.
Under `C#CCN(C)c1cc(C)nc(C)n1` stands 37.32%; under `Cc1[nH]nc2c1C(c1ccc(O)c(O)c1)C(C#N)=C(N)O2` (stereo not drawn), 33.68%; under `Cc1ccccc1-c1c(C=N)c(N)nc2c1S(=O)(=O)OC2(C)C`, 38.2%.
Next, `C#CC[n+]1ccccc1N.[Br-]`: -1.42%; `CSC1=NC(=Cc2ccccc2)C(=O)N1C`: -3.84%; `Cl.N#Cc1c(N)nc(NCCO)c(C#N)c1-c1ccccc1`: -8.51%.
As for `CC(=O)NC=C1C(=O)OC(C)(C)OC1=O`, the Inhibition is listed as 34.55%.
Take `CC1=C(C(=O)O[C@@H]2C[C@@]3(C)CC[C@H]2C3(C)C)C(c2ccccc2)C(C#N)=C(N)O1` (stereo partly drawn): the Inhibition was -21.72%.
Take `COC(=O)C(=Cc1ccc(OC)cc1)NC(C)=O`: the Inhibition was determined as 39.27%.
Consider `N#Cc1cc(Br)cc(Br)c1N`, for which the Inhibition is -3.17%.
Consider `C=C1CN(Cc2ccccc2)c2c(C#N)c(-c3ccccc3)c(C#N)c(=N)n21`, for which the Inhibition was found to be 8.72%.
In the case of `Cn1c(CNNC(=O)Cc2cccc3ccccc23)cc2ccccc21`, the Inhibition was found to be 3.2%.
Under `O=C1OC(c2ccccc2)=NC1=Cc1ccc(Cl)cc1` stands 20.55%.
Next, `CC(C(=O)O)c1c[nH]c2ccccc12` (stereo not drawn): 49.12%.
Consider `C#CCN(C)c1nc(NCCCC2CCN(Cc3ccccc3)CC2)c(C#N)cc1C#N`, for which the Inhibition was -3.53%.
Take `C#CCNc1[nH]c2ccc(O)cc2c1C#N`: the Inhibition is 22.49%.
As to `COc1ccc(C2c3c(ccc4ccccc34)OC(=N)C2(Br)C#N)cc1` (stereo not drawn), the Inhibition stood at 21.31%.
Turning to `CCOc1nc2nc3c(c(N)c2cc1C#N)CCCC3`, the Inhibition was determined as 9.45%.
Regarding `CCOC(=O)C1=C(C)Oc2nc3c(c(N)c2C1c1ccccc1OC)CCC3` (stereo not drawn), the Inhibition is given as 42.21%.
On to `COc1cc(CCC(N)=O)ccc1O`, for which the Inhibition turned out to be 17.72%.
Consider `Cl.ClCCCN1CCCC1`, for which the Inhibition stood at 11.03%.
On to `C#CCN(C)c1nc(Cl)c(C#N)c(-c2ccccc2)c1C#N`, for which the Inhibition was 8.09%.
Next, `O=C(N[C@H]1CC[C@H](O)CC1)c1ccccc1`: 23.83%; `O=C1NC(=S)N/C1=C\c1c[nH]c2ccccc12`: 14.28%.
For `COc1nc(N)c(C#N)c(-c2ccccc2)c1C#N`, the Inhibition came out at 6.09%.
Consider `COc1ccc(C2c3c(ccc4ccccc34)OC(=N)C2(Br)C#N)cc1OC` (stereo not drawn), for which the Inhibition is -6.04%.
Next, `N#Cc1c(N)nc(N2CCC(Cc3ccccc3)CC2)c(C#N)c1-c1ccccc1`: -2.05%; `Cc1[nH]nc2c1C(c1cccc([N+](=O)[O-])c1)C(C#N)=C(N)O2` (stereo not drawn): 39.5%.
Turning to `N#CC1=C(N)Oc2ccc3ccccc3c2C1c1ccccc1` (stereo not drawn), the Inhibition was found to be 16.85%.
As to `N#Cc1cc2c(N)n[nH]c2nc1N`, the Inhibition worked out at 20.33%.
For the compound `CC(=O)Oc1ccc(C=C2N=C(c3ccccc3)OC2=O)cc1`, the Inhibition is recorded as -1.77%.
As to `OCc1c(-c2ccc(Br)cc2)nc2ccccn12`, the Inhibition is 21.78%.
Under `Cc1nc2c3cnn(-c4ccccc4)c3nc(C)n2n1` stands 20.52%.
